# Data from the supplement of paper PMC3334620.
# In all, about 33,000 sequences were measured (“E-score (-0.5 to 0.5)”: median about -0.054, highest 2% from about 0.35 on). The list shows a part of the results.
# Molecular target: T1, Stb5 (UniProt P38699)
# T1 sequence: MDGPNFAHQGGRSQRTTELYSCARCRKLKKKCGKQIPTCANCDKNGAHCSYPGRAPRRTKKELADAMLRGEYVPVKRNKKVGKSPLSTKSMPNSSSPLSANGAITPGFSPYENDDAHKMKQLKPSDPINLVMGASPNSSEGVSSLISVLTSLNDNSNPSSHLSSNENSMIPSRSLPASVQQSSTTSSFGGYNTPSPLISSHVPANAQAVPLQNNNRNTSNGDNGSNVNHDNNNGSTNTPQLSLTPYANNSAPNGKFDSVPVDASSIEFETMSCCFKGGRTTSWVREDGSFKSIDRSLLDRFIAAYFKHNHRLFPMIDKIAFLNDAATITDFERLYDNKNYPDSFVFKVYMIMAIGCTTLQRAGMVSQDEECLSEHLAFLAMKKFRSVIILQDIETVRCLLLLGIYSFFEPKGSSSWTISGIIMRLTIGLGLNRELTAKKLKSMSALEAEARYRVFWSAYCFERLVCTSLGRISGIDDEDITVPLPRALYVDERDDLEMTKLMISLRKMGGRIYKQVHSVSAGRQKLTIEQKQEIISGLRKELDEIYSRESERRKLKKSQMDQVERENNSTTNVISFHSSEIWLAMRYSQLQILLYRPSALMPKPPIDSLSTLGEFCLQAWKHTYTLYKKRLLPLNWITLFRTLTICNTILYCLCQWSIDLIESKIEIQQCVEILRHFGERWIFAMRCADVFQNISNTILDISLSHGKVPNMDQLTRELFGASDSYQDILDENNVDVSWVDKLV
# Assay: PBM E-score (8-mer binding enrichment) (E-score (-0.5 to 0.5)); higher = stronger / more preferred TF binding; most listed sequences are background and not binding sites
# Conditions: protein concentration: 200 nM; construct: GST-full length
# In short: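 Universal all-10-mer Agilent arrays, double-stranded by primer extension on fresh or once-stripped slides, were probed with about 100-200 nM GST-tagged yeast transcription factors made by PURExpress. Fluorescent anti-GST detected bound protein, and masliner normalised the scans. E-scores from the Universal PBM Analysis Suite were given to each ungapped eight-base word pooled with its reverse complement.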
row,Sequence,PBM E-score
1,CAAACTGA,-0.0692
2,AATGGTAA,0.003
3,GAAATAAA,0.144
4,CGCCTGAG,0.0853
5,CGACCGCG,0.236
6,ACACACCT,-0.0405
7,GCACGGCC,0.196
8,ATGGGACA,-0.128
9,CATTAGAA,-0.132
10,ACTTACTC,-0.0763
11,ACTATGAT,-0.24
12,ACATTAGC,-0.083
13,CGCCTCGC,-0.0852
14,CGCCCGTA,0.167
15,ATTTATAG,-0.1
16,AATGATCG,-0.0487
17,AGCTTGTC,0.0933
18,ACCACGAG,-0.212
19,GAGACCAA,-0.0876
20,CTACAGCA,-0.0759
21,CAATGACA,-0.196
22,GCCTTTTA,0.0423
23,ACTAAAAA,0.158
24,GATCTTCA,0.0754
25,AATTAAGA,-0.00593

row,Sequence,PBM E-score
1,CTAGACAG,-0.0509
2,CGTTCTAG,-0.0907
3,ACTCCCAA,-0.18
4,CTCGAAAG,-0.0798
5,ACTAGTAC,-0.00152
6,CGATCACA,-0.028
7,GAGACATA,-0.0521
8,GCATTCAA,-0.174
9,GCTGTTGA,0.0206
10,CCCTAATA,-0.32
11,GTGTGCAA,-0.29
12,ACGATGAG,0.0342
13,AATATCGT,-0.0759
14,GTAGACCA,-0.297
15,CGTTTCAA,-0.0569
16,ATTGGATA,-0.192
17,TGCTAACA,-0.129
18,ATCTTATG,-0.0577
19,ACCTGGCA,-0.222
20,AAATTTCA,-0.344
21,ACTGGGTA,-0.0785
22,AGGGCAGG,-0.205
23,CGGGAGGA,0.062
24,GATGGCGA,0.0422
25,AGAATACA,-0.117

row,Sequence,PBM E-score
1,CAGGACAG,-0.143
2,ATCAAATC,-0.0341
3,GAGGCCAA,-0.254
4,AATTGAGA,-0.0963
5,CCGATTAC,0.224
6,TACCACTA,-0.3
7,AAGAAACA,-0.0428
8,ACCAGTAT,-0.123
9,GGGCACCC,-0.0767
10,GTAAAGAC,-0.0147
11,CCCTCAAA,-0.102
12,GTGAGAAC,-0.0202
13,CACTGAGC,-0.167
14,AGCAACCC,-0.0382
15,AGGGATCA,-0.136
16,ATTAATTC,0.137
17,AACGGGGT,0.373
18,AGAAAACA,-0.128
19,CGGAAACC,-0.00066
20,ACAAATGC,0.0256
21,AAAGGACA,-0.0867
22,GTCATGGA,-0.247
23,TAGCCGCA,0.187
24,CACCTATA,-0.141
25,GACGGTAA,0.294

row,Sequence,PBM E-score
1,AGACGTCG,-0.049
2,ACAAAGGA,-0.158
3,CTCCAATA,0.0678
4,CAATTAGG,0.0844
5,ATCGGCCG,0.249
6,GAAGCGAA,-0.235
7,ACATTCGT,-0.218
8,AGTATCGG,0.291
9,TCACACGA,-0.0813
10,ATGATTAA,-0.0447
11,ACAGACTG,-0.235
12,GCCCTGAC,-0.248
13,TACACTGA,-0.246
14,CCAAGTAC,0.0251
15,AACGAGAT,-0.108
16,AGGCCCTC,-0.16
17,GATTCTCA,-0.158
18,AGAACGTC,-0.263
19,AGGGACGC,-0.331
20,ACCTGCGC,0.121
21,AGGCATCG,-0.108
22,AAGCTGTC,-0.214
23,GAGTCTGC,-0.274
24,GAACGTAA,-0.18
25,CCCTAACA,-0.184

row,Sequence,PBM E-score
1,CAGCCTTC,-0.321
2,ACGTTGGA,-0.298
3,AGTCCCGC,0.358
4,GTACTGGA,-0.147
5,CGGTATAA,0.327
6,AGGCCTAC,0.0243
7,CGGTTAAC,0.18
8,ATATCCTG,-0.165
9,AACAGATT,-0.224
10,CGGGTTTC,0.273
11,AAGCCGTG,-0.0242
12,CATCGTTA,-0.0894
13,GACCTCAC,0.0462
14,CATTGTGG,-0.077
15,ATTCATTA,0.117
16,TCCCAGCA,-0.0554
17,AAAACGCC,0.368
18,GAGGGCCA,-0.195
19,GCTATCTA,-0.0923
20,ACCTCTTC,0.0753
21,AGACTGGC,-0.215
22,CTGTTGCA,-0.0546
23,GGCTTACC,0.0504
24,CTTCACTC,-0.116
25,AAAACACT,0.0252

row,Sequence,PBM E-score
1,CGTTAAGC,0.159
2,ATCACCTG,0.0314
3,GGCAAGAC,0.0734
4,CGCCACCC,-0.0067
5,TAAGTGAA,-0.0582
6,GACCCAAA,-0.0119
7,GTTATTCA,-0.0651
8,ATGCACTA,-0.0627
9,AGCGATAT,-0.141
10,GCCCTCCC,0.0336
11,CCAATTGA,-0.24
12,CAAAATAC,0.0466
13,CCCGTAAG,0.139
14,ACCATTTC,-0.208
15,AACCCATC,-0.139
16,ATGGACAT,-0.0148
17,GTAGTGTA,-0.149
18,CCTCTTTA,-0.0112
19,GCTAAAGC,-0.0673
20,CCTAGATC,-0.113
21,ATTATTGG,0.0592
22,ACTCTGCA,-0.026
23,CGTACAGC,0.105
24,CAGATCGG,0.29
25,GCGAGCCA,-0.132

row,Sequence,PBM E-score
1,CTACCCAA,-0.238
2,GTCGCGCA,0.0561
3,CATGTCCA,-0.117
4,CTACAAAG,-0.212
5,GATCAGAA,-0.321
6,AGTGACAG,-0.0907
7,AAGGGCAA,-0.0626
8,CATTCAGC,-0.149
9,ATACCCCG,0.392
10,ACTCTACG,-0.241
11,ACAGCGTA,-0.0758
12,GAAGGACA,0.0852
13,GGAAACCA,-0.0888
14,CAATCAAC,-0.135
15,ACTTGTCG,0.124
16,GGCCTGAA,0.0195
17,AGTTTCTC,-0.227
18,AAATGTAA,-0.0576
19,CAGTCATA,-0.0326
20,TAGGGCAA,-0.123
21,ACCCGACC,0.279
22,GATCGACC,-0.0421
